Results as given in PMC4336329 (PLoS ONE, 2015).
Out of some 310,000 compounds screened, about 14,000 (4.5%) showed an effect of 50% or more. Effects have a minus sign here. This is one part of the list.

Molecular target: human ether-à-go-go-related gene (hERG) potassium channel (human, UniProt Q12809)
Test: primary screen, population patch clamp on CHO cells stably expressing hERG
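Further: peak tail current of the secondary pulse compared with the same well before compound.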

Chain of human ether-à-go-go-related gene (hERG) potassium channel (Q12809 whole entry, looked up): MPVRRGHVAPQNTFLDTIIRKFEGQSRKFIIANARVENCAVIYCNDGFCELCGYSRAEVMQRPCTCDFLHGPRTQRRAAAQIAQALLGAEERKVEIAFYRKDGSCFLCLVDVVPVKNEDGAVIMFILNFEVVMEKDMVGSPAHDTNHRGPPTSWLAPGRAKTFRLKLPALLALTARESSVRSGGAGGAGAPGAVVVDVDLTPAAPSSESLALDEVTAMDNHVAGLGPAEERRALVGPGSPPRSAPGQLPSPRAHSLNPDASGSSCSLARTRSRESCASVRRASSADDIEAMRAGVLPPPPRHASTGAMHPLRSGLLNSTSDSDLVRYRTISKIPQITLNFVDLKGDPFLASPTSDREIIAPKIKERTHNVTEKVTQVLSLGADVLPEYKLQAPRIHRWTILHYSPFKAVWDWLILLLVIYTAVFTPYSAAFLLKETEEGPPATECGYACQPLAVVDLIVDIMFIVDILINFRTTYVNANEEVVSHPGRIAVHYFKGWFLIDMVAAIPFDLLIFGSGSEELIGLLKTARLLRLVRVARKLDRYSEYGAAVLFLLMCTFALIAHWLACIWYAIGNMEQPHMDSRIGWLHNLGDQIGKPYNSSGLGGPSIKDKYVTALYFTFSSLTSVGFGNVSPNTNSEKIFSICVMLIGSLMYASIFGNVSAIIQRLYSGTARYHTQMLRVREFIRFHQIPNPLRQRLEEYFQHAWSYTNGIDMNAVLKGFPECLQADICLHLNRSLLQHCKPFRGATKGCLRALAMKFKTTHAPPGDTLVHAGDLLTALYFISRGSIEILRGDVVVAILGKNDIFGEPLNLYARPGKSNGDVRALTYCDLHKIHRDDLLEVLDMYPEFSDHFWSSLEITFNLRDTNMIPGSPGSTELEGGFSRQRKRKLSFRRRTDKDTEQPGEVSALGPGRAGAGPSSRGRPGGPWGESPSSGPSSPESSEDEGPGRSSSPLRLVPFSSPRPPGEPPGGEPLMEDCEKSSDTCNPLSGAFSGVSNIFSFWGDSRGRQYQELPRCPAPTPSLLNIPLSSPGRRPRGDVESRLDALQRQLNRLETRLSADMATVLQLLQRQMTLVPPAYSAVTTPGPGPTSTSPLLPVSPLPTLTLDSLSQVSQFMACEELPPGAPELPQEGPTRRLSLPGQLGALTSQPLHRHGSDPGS

In order of rising “hERG current change (%, negative = inhibition) at 10uM” value:
1. C=CCn1cc(CN2CCC(C(=O)Nc3cccc(-c4cccc(Cl)c4)c3)CC2)c(C)n1  -71.5%
2. Cn1c(CN2CCN(c3ccccc3NS(C)(=O)=O)CC2)nc2ccccc21  -61.5%
3. C/C(=C(\C#N)C(=O)NCCN1CCOCC1)N(C)C  -31.4%
4. O=C(C1=COCCO1)N1CCN(S(=O)(=O)c2cccc(Cl)c2Cl)CC1  -21.4%
5. COc1ccc(CCNC(=O)c2nn(C)c3c2CS(=O)(=O)c2ccccc2-3)c(OC)c1  -19.7%
6. CCOc1ccccc1NC(=O)C1CCCN(S(=O)(=O)c2ccc(-n3cnnn3)cc2)C1 (stereo not shown)  -14.9%
7. Oc1ccc(CN2CCN(Cc3ccccc3)CC2)c2cccnc12  -13.9%
8. COc1ccc(CCNC(=O)c2cc(=O)c3cc(C)ccc3o2)cc1OC  -12.7%
9. Cc1nn(-c2ccc(Cl)cc2Cl)c(=O)c2ccccc12  -11.3%
10. COc1ccc(NC(=S)NC(NC(=O)c2cccc3ccccc23)C(Cl)(Cl)Cl)c([N+](=O)[O-])c1 (stereo not shown)  -10.3%
11. O=C(COn1nnc2ccc(S(=O)(=O)N3CCOCC3)cc21)NCCc1ccccc1  -8.87%
12. O=C(c1cc2ccccc2oc1=O)N1CCN(c2ccccn2)CC1  -7.95%
13. CC(=O)c1ccc(NC(=O)C2CCCN(S(=O)(=O)c3ccc(-n4cnnn4)cc3)C2)cc1 (stereo not shown)  -7.32%
14. COc1ccc2c(c1)c(C(C)=O)c(C)n2CCc1ccc(OC)c(OC)c1  -6.52%
15. Cc1nc(S/C(C(=O)O)=C2/C(=O)Nc3ccccc32)n[nH]1  -4.82%
16. O=C1NCCN1C(=O)C12CC3CC(CC(C3)C1)C2  -3.17%
17. CCOc1ccc2ncc(S(=O)(=O)c3ccccc3)c(N3CCN(c4ccccc4)CC3)c2c1  -2.21%
18. Cc1c(Cl)cccc1NC(=O)CNc1cccc(C(F)(F)F)c1  -2.18%
19. COc1ccc(CCNS(=O)(=O)c2cccc(F)c2)cc1OC  -1.75%
20. O=C(Nc1nnc(SCC(=O)N2CCCCC2)s1)c1ccc(F)cc1F  -1.68%
21. COC(=O)CN(c1cc(C(F)(F)F)ccc1Cl)S(C)(=O)=O  -0.798%
22. O=C(O)c1cccc(S(=O)(=O)Nc2cccc(S(=O)(=O)N3CCCC3)c2)c1  0.053%
23. Cc1ccc(C(=O)CSc2nnc(-c3ccco3)o2)o1  0.0679%
24. CN(C(=O)c1ccc2c(c1)OCO2)C1(C)CCS(=O)(=O)C1 (stereo not shown)  0.831%
25. COC(=O)Cc1ccc(OC(=O)c2cccc(S(=O)(=O)N3CCN(C)CC3)c2)cc1  1.35%
26. CC1Cc2ccccc2N1C(=O)COC(=O)c1ccc(Cl)nc1 (stereo not shown)  3.39%
27. CCOC(=O)N1CCN(C(=O)CCN2C(=O)/C(=C\c3cccc(OC)c3)SC2=S)CC1  5.87%
28. COc1ccc(CC2(CCc3ccccn3)C(=O)NC(=O)N(c3ccccc3C)C2=O)cc1OC (stereo not shown)  6.39%
29. O=C(Nc1ccc(O)cc1)c1ccc2c(c1)C(=O)N(Cc1cccnc1)C2=O  7.52%
30. Cc1cccc(Oc2sc(C(=O)c3ccccc3)c(N)c2C#N)c1C  8.13%
31. Nc1ccc(C(=O)OCC(=O)N2c3ccccc3Sc3ccccc32)cc1[N+](=O)[O-]  8.44%
32. O=C(Nc1ccccc1F)C1CCN(S(=O)(=O)c2cccnc2)CC1  9.24%
33. COc1ccc(-c2c(C)n([O-])c3c([n+]2=O)CCCCC3)cc1  9.61%
34. Cc1ccc(-n2nc(C)c(=O)c(-c3ccccc3)c2NC(=O)c2cccs2)cc1  9.65%
35. COc1ccc(N2C(=O)c3ccc(C(=O)Nc4ccccc4OC)cc3C2=O)cc1  10.1%
36. CC1=NN(c2ccccc2)C(=O)C1N=Nc1ccc(S(N)(=O)=O)cc1 (stereo not shown)  10.5%
37. CCC(CC)NC(=O)c1nn(Cc2ccccc2)c(=O)c2ccccc12  10.9%
38. CCOC(=O)C1=C(C)NC(=O)NC1c1ccc(NC(C)=O)cc1 (stereo not shown)  11.6%
39. COCCCNC(=S)Nc1cccc(SC)c1  12.8%
40. CC(C)c1ccc(OCC(=O)NC(Cc2c[nH]c3ccccc23)C(=O)O)cc1 (stereo not shown)  12.8%
41. O=C(Nc1ccc2cn[nH]c2c1)c1ccc(Cl)c(S(=O)(=O)N2CCOCC2)c1  13.4%
42. CCCCn1c(N)c(N(CC(C)C)C(=O)c2ccc3c(c2)NC(=O)C(C)S3)c(=O)[nH]c1=O (stereo not shown)  15.6%
43. O=C(CCSCCc1ccccn1)Nc1nccs1  30.1%
